Measured values: patent publication US20250228957A1
Values belong to the binder of their own block, whether it stands above or below them.

Tests used:
[1] = biological target: Deglycosylated IgA (dg-IgA) (human) (UniProt P01876); test: BLI, dg-IgA on Protein L tips
[2] = biological target: ASGPR (as used in the SPR of Table 7) (Homo sapiens (Human)) (UniProt P07306); test: SPR
[3] = biological target: Deglycosylated IgA (dg-IgA) (human) (UniProt P01876); test: cell-based or functional assay
Total IgA = test: cell-based or functional assay
[4] = biological target: Monomeric dg-IgA (Alexa Fluor 594 conjugate, SEC fraction) (human) (UniProt P01876); test: cell-based or functional assay
[5] = biological target: Dimeric dg-IgA (Alexa Fluor 594 conjugate, SEC fraction) (human) (UniProt P01876); test: cell-based or functional assay
[6] = biological target: Tetrameric dg-IgA (Alexa Fluor 594 conjugate, SEC fraction) (human) (UniProt P01876); test: cell-based or functional assay
[7] = biological target: Deglycosylated IgA (dg-IgA) (human) (UniProt P01876); test: SPR (Biacore S200), dg-IgA amine-coupled to CM5 chip, single-cycle, steady-state fit, two replicates
[8] = biological target: Deglycosylated IgA (dg-IgA) (human) (UniProt P01876); test: SPR, dg-IgA amine-coupled to CM5

B1: AGN01G (ABT010 conjugated with MAT007) (antibody, human IgG1, kappa)
heavy: ELQLQESGPGLVKPSQSLSLTCSVTGYSIRSNYWGWIRKFPGNKMEWMGYITYSGGTYYNPSLKSRISITRDTSKNQFFLQLTSVTTEDTATYYCTRWGDWYFDFWGPGTKVTVSP[letters of human IgG1 constant region not shown]
light: DVVLTQTPPPLSVAIGQSVSISCKSSQSLVHTDGKTYLHWLLQSPGQSPKLLIYQVSNLGSGVPDRFSGTGSQKDFTLKISRVEAEDLGVYYCVQATHFPLTFGIGTKLELQRTVAAPSVFIFPPSDEQLKSGTASVVCLLNNFYPREAKVQWKVDNALQSGNSQESVTEQDSKDSTYSLSSTLTLSKADYEKHKVYACEVTHQGLSSPVTKSFNRGEC
modifications: MATE reagent MAT007 (ASGPR binder PR3) conjugated; site not stated for this agent
Kd [1]: 0.298 nM
Kd [2]: 0.0863 nM
EC50, Assay #2, uptake of A594-labelled cargo by HEK293 (+ASGPR) cells [3]: 1.07 nM
EC50, Assay #3, uptake of A594-labelled cargo by HEK293 (+ASGPR) cells [3]: 1.27 nM
High MFI, Assay #1, uptake of A594-labelled cargo by HEK293 (+ASGPR) cells [3]: 25800 MFI
High MFI, Assay #2, uptake of A594-labelled cargo by HEK293 (+ASGPR) cells [3]: 72400 MFI
High MFI, Assay #3, uptake of A594-labelled cargo by HEK293 (+ASGPR) cells [3]: 83500 MFI
S/N, Assay #1, uptake of A594-labelled cargo by HEK293 (+ASGPR) cells (signal-to-noise ratio) [3]: 330
S/N, Assay #2, uptake of A594-labelled cargo by HEK293 (+ASGPR) cells (signal-to-noise ratio) [3]: 660
S/N, Assay #3, uptake of A594-labelled cargo by HEK293 (+ASGPR) cells (signal-to-noise ratio) [3]: 911
EC50, Assay #1, uptake of A594-labelled cargo by HEK293 (+ASGPR) cells (Total IgA): 86.3 nM
EC50, Assay #2, uptake of A594-labelled cargo by HEK293 (+ASGPR) cells (Total IgA): 7.39 nM
EC50, Assay #3, uptake of A594-labelled cargo by HEK293 (+ASGPR) cells (Total IgA): 20.6 nM
High MFI, Assay #1, uptake of A594-labelled cargo by HEK293 (+ASGPR) cells (Total IgA): 74.7 MFI
High MFI, Assay #2, uptake of A594-labelled cargo by HEK293 (+ASGPR) cells (Total IgA): 364 MFI
High MFI, Assay #3, uptake of A594-labelled cargo by HEK293 (+ASGPR) cells (Total IgA): 2100 MFI
S/N, Assay #2, uptake of A594-labelled cargo by HEK293 (+ASGPR) cells (signal-to-noise ratio) (Total IgA): 806

B3: AGN01E (ABT010 conjugated with MAT005) (antibody, human IgG1, kappa)
heavy: B1 heavy
light: B1 light
modifications: MATE reagent MAT005 (ASGPR binder desOH2) conjugated; site not stated for this agent
Kd [1]: 0.329 nM
Kd [2]: 0.0379 nM

B4: AGN01F (ABT010 conjugated with MAT006) (antibody, human IgG1, kappa)
heavy: B1 heavy
light: B1 light
modifications: MATE reagent MAT006 (ASGPR binder desOH1) conjugated; site not stated for this agent
Kd [1]: 0.331 nM
Kd [2]: 8.12 nM

B5: AGN01H (ABT010 conjugated with MAT008) (antibody, human IgG1, kappa)
heavy: B1 heavy
light: B1 light
modifications: MATE reagent MAT008 (ASGPR binder TFP1) conjugated; site not stated for this agent
Kd [1]: 0.282 nM

B8: AGN01B (ABT010 conjugated with MAT002) (antibody, human IgG1, kappa)
heavy: B1 heavy
light: B1 light
modifications: MATE reagent MAT002 (ASGPR binder βGN2) conjugated; site not stated for this agent
Kd [1]: 0.296 nM
Kd [2]: 1.17 nM

Further lines, results first:

Kd [1]: 0.234 nM
EC50 (nM), endocytosis by HEK293 cells transfected with ASGPR1 [4]: 3.93 nM
High MFI, endocytosis by HEK293 cells transfected with ASGPR1 [4]: 94400 MFI
S/N, endocytosis by HEK293 cells transfected with ASGPR1 (signal-to-noise ratio) [4]: 679
EC50, Assay #1, uptake of A594-labelled cargo by HEK293 (+ASGPR) cells [3]: 2.52 nM
EC50, Assay #2, uptake of A594-labelled cargo by HEK293 (+ASGPR) cells [3]: 1.75 nM
EC50, Assay #3, uptake of A594-labelled cargo by HEK293 (+ASGPR) cells [3]: 1.38 nM
High MFI, Assay #1, uptake of A594-labelled cargo by HEK293 (+ASGPR) cells [3]: 6190 MFI
High MFI, Assay #2, uptake of A594-labelled cargo by HEK293 (+ASGPR) cells [3]: 22800 MFI
High MFI, Assay #3, uptake of A594-labelled cargo by HEK293 (+ASGPR) cells [3]: 28500 MFI
S/N, Assay #1, uptake of A594-labelled cargo by HEK293 (+ASGPR) cells (signal-to-noise ratio) [3]: 72
S/N, Assay #2, uptake of A594-labelled cargo by HEK293 (+ASGPR) cells (signal-to-noise ratio) [3]: 201
S/N, Assay #3, uptake of A594-labelled cargo by HEK293 (+ASGPR) cells (signal-to-noise ratio) [3]: 222
EC50, Assay #1, uptake of A594-labelled cargo by HEK293 (+ASGPR) cells (Total IgA): 55.3 nM
EC50, Assay #2, uptake of A594-labelled cargo by HEK293 (+ASGPR) cells (Total IgA): 27.4 nM
EC50, Assay #3, uptake of A594-labelled cargo by HEK293 (+ASGPR) cells (Total IgA): 9.87 nM
High MFI, Assay #1, uptake of A594-labelled cargo by HEK293 (+ASGPR) cells (Total IgA): 83.9 MFI
High MFI, Assay #2, uptake of A594-labelled cargo by HEK293 (+ASGPR) cells (Total IgA): 91.4 MFI
High MFI, Assay #3, uptake of A594-labelled cargo by HEK293 (+ASGPR) cells (Total IgA): 132 MFI
S/N, Assay #2, uptake of A594-labelled cargo by HEK293 (+ASGPR) cells (signal-to-noise ratio) (Total IgA): 101
EC50 (nM), endocytosis by HEK293 cells transfected with ASGPR1 [5]: 0.48 nM
High MFI, endocytosis by HEK293 cells transfected with ASGPR1 [5]: 115000 MFI
S/N, endocytosis by HEK293 cells transfected with ASGPR1 (signal-to-noise ratio) [5]: 140
EC50 (nM), endocytosis by HEK293 cells transfected with ASGPR1 [6]: 0.37 nM
High MFI, endocytosis by HEK293 cells transfected with ASGPR1 [6]: 120000 MFI
S/N, endocytosis by HEK293 cells transfected with ASGPR1 (signal-to-noise ratio) [6]: 57.9
Kd [7]: 19 nM
Kd [8]: > 100 nM
B2: AGN03A (ABT030 conjugated with MAT001) (antibody, human IgG1, kappa)
heavy: ELQLQESGPGLVKPSQSLSLTCSVTGYSIRSNYWGWIRKFPGNKMEWMGYITYSGGTYYNPSLKSRISITRDTSKNQFFLQLTSVTTEDTATYYCTRWGDWYFDFWGPGTKVTVSPASTKGPSVFPLAPSSKSTSGGTAALGCLVKDYFPEPVTVSWNSGALTSGVHTFPAVLQSSGLYSLSSVVTVPSSSLGTQTYICNVNHKPSNTKVDKKV[letters of human IgG1 Fc with changes not shown]
light: B1 light
modifications: Linker and ASGPR binder (MAT001, βGN3) attached via a stable amide connection at Lys248 (heavy chain K247 in the linear numbering); BAR = 2 at about 87% ; Chain 1 pos 247 (EU Lys248): Lys carries the linker and the tris-GalNAc ASGPR binder (MAT001, βGN3) through an amide bond, written K. It is on both heavy chains (BAR = 2, about 87%). The letters cannot carry the ligand.

Kd [1]: 0.304 nM
B6: AGN01I (ABT010 conjugated with MAT009) (antibody, human IgG1, kappa)
heavy: B1 heavy
light: B1 light
modifications: MATE reagent MAT009 (ASGPR binder TFP1) conjugated; site not stated for this agent

Kd [1]: 0.253 nM
B7: AGN02A (ABT020 conjugated with MAT001) (antibody, human IgG1, kappa)
heavy: ELQLQESGPGLVKPSQSLSLTCSVTGYSIRSNYWGWIRKFPGNKMEWMGYITYSGGTYYNPSLKSRISITRDTSKNQFFLQLTSVTTEDTATYYCTRWGDWYFDFWGPGTKVTVSP[letters of human IgG1 constant region with changes not shown]
light: B1 light
modifications: MATE reagent MAT001 (ASGPR binder βGN3) conjugated; site not stated for this agent

Kd [1]: 0.253 nM
B9: AGN02B (ABT020 conjugated with MAT002) (antibody, human IgG1, kappa)
heavy: ELQLQESGPGLVKPSQSLSLTCSVTGYSIRSNYWGWIRKFPGNKMEWMGYITYSGGTYYNPSLKSRISITRDTSKNQFFLQLTSVTTEDTATYYCTRWGDWYFDFWGPGTKVTVSP[letters of human IgG1 constant region with changes not shown]
light: B1 light
modifications: MATE reagent MAT002 (ASGPR binder βGN2) conjugated; site not stated for this agent
